# Data published in the supplement of paper PMC12217912.
# Some of the results follow. Sequences were assembled here from the parent chain. Inactive controls read about 0.05.
# B1: TEV protease; numbered along this chain (parent)
# chain: MGESLFKGPRDYNPISSSICHLTNESDGHTTSLYGIGFGPFIITNKHLFRRNNGTLVVQSLHGVFKVKDTTTLQQHLVDGRDMIIIRMPKDFPPFPQKLKFREPQREERICLVTTNFQTKSMSSMVSDTSCTFPSGDGIFWKHWIQTKDGQCGSPLVSTRDGFIVGIHSASNFTNTNNYFTSVPKNFMELLTNQEAQQWVSGWRLNADSVLWGGHKVFMVKPEEPFQPVKEATQL
# Variants of: B1
# Assay: raw area under fraction-flipped curve 0-4 h after induction (AUC4h, not background-subtracted), DNA-recorder readout of cleavage of the substrate (dimensionless); higher = more cleavage of the substrate by the protease variant
# Details: temperature: 34 °C; time window: 0-4 h after rhamnose induction
# 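Note: Bxb1 expression induced with 0.2% (w/v) L-rhamnose at OD600 near 0.5, cultures sampled hourly, flipped fraction per protease–substrate barcode pair counted by paired-end Illumina sequencing.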
Variant,area with substrate ENEYFQS,area with substrate ENFYFQS,area with substrate ENIYFQS,area with substrate ENQYFQS,area with substrate ENSYFQS,area with substrate ENTYFQS,area with substrate ENVYFQS,area with substrate ENWYFQS,area with substrate ENDYFQS,area with substrate ENNYFQS,area with substrate ENPYFQS,area with substrate ENRYFQS,area with substrate ENHYFQS,area with substrate ENMYFQS,area with substrate ENGYFQS,area with substrate ENKYFQS,area with substrate ENYYFQS
MGESLFKGPRDYNPISSSICHLTNESDGHTTSLYGIGFGPFIITNKHLFRRNNGTLVVQSLHGVFKVKDTTTLQQHLVDGRDMIIIRMPKDFPPFPQKLKFREPQREERICLVTTNFQTKSMSSMVSDTSCTFPSGDGIFWKHWIQTKDGQCGSPLVSTRDGFIVGIHSASNFTNTNNYFTSVPKNFMELLTNQEAQQWVSGWRLNADSVLMGGHKVFMVKPEEPFQPVKEATQL [W212M],0.0599,0.0663,0.179,0.0548,0.0647,0.0369,0.102,0.0817,–,–,–,–,–,–,–,–,–
MGESLFKGPRDYNPISSSICHLTNESDGHTTSLYGIGFGPFIITNKHLFRRNNGTLVVQSLHGVFKVKDTTTLQQHLVDGRDMIIIRMPKDFPPFPQKLKFREPQREERICLVTTNFQTKSMSSMVSDTSCTFPSGDGIFWKHWIQTKDGQCGSPLVSTRDGFIVGIHSASNFTNTNNYFTSVPKNFMELLTNQEAQQWVSGRRLNADSVLWGGHKVFMVKPEEPFQPVKEATQL [W203R],0.0609,0.0667,–,–,0.0632,0.0582,–,–,0.0908,0.0712,0.0657,0.0303,–,–,–,–,–
MGESLFKGPRDYNPISSSICHLTNESDGHTTSLYGIGFGPFIITNKHLFRRNNGTLVVQSLHGVFKVKDTTTLQQHLVDGRDMIIIRMPKDFPPFPQKLKFREPQREERICLVTTNFQTKSMSSMVSDTSCTFPSGDGIFWKHTIQTKDGQCGSPLVSTRDGFIVGIHSASNFTNTNNYFTSVPKNFMELLTNQEAQQWVSGWRLNADSVLWGGHKVFMVKPEEPFQPVKEATQL [W144T],–,0.0694,0.107,0.0625,0.057,–,0.0804,–,–,–,–,–,0.0461,0.0756,–,–,–
MGESLFKGPRDYNPISSSICHLTNESDGHTTSLYGIGFGPFIITNKHLFRRNNGTLVVQSLHGVFKVKDTTTLQQHLVDGRDMIIIRMPKDFPPFPQKLKFREPQREERICLVTTNFQTKSMSSMVSDTSCTFPSGDGIFWKHWIQTKDGQCGSPLVSTRDGFIVGIHSASNFTNTNNYFTSVPKNFMELLTNQEAQQWVSGWRLNADSVLWGGHKVFMVKPEPPFQPVKEATQL [E224P],0.0668,–,0.0907,–,0.0653,0.0649,–,–,0.0576,0.0519,0.082,–,0.0587,–,0.0836,–,–
MGESLFKGPRDYNPISSSICHLTNESDGHTTSLYGIGFGPFIITNKHLFRRNNGTLVVQSLHGVFKVKDTTTLQQHLVDGRDMIIIRMPKDFPPFPQKLKFREPQREERICLVTTNFQTKSMSSMVSDTSCTFPSGDGIFWKHWIQTKDGQCGSPLVSTRDGFIVGIHSASNFTNTNNYFTSVPKNFMELLTNQEAQQWVSGWRLNADSVLWGGHKVFMVKMEEPFQPVKEATQL [P222M],0.0621,0.0605,0.122,0.0581,0.0716,0.0621,0.0791,0.0335,–,–,–,0.0634,–,–,0.0581,0.0545,–
MGESLFKGPRDYNPISSSICHLTNESDGHTTSLYGIGFGPFIITNKHLFRRNNGTLVVQSLHGVFKVKDTTTLQQHLVDGRDMIIIRMPKDFPPFPQKLKFREPQREERICLVTTNFQTKSMSSMVSDTSCTFPSGDGIFWKHWIQTKDGQCGSPLVSTRDGFIVGIHSASNFTNTNNYFTSVPKNFCELLTNQEAQQWVSGWRLNADSVLWGGHKVFMVKPEEPFQPVKEATQL [M188C],–,0.0675,0.134,–,–,0.05,0.0745,–,–,0.0729,0.0648,–,0.0808,–,–,–,0.0705
MGESLFKGPRDYNPISSSICHLTNESDGHTTSLYGIGFGPFIITNKHLFRRNNGTLVVQSLHGVFKVKDTTTLQQHLVDGRDMIIIRMPKDFPPFPQKLKFREPQREERICLVTTNFQTKSMSSMVSDTSCTFPSGDGIFWKHWIQTKDGQCGSPLVSTRDGFIVGIHSASNFTNTNNYFTSVPKNFMELLTNQEAQQWESGWRLNADSVLWGGHKVFMVKPEEPFQPVKEATQL [V200E],–,0.0824,–,–,0.0591,–,–,0,0.0652,0.0471,0.0487,–,–,–,–,–,0.0552
MGESLFKGPRDYNPISSSICHLTNESDGHTTSLYGIGFGPFIITNKHLFRRNNGTLVVQSLHGVFKVKDTTTLQQHLVDGRDMIIIRMPKDFPPFPQKLKFREPQREERICLVTTNFQTKSKSSMVSDTSCTFPSGDGIFWKHWIQTKDGQCGSPLVSTRDGFIVGIHSASNFTNTNNYFTSVPKNFMELLTNQEAQQWVSGWRLNADSVLWGGHKVFMVKPEEPFQPVKEATQL [M122K],0.0561,0.0657,0.07,0.0605,0.0591,0.0909,0.064,–,–,0.0648,–,–,–,–,0.0631,–,0.0771
MGESLFKGPRDYNPISSSICHLTNESDGHTTSLYGIGFGPFIITNKHLFRRNNGTLVVQSLHGVFKVKDTTTLQQHLVDGRDMIIIRMPKDFPPFPQKLKFREPQREERICLVTTNFQTKSMSSMVSDTSCTFPSGDGIFWKHWIQTKDGQCGSPLVSTRDGFIVGIHSASNFTNTNNYFTSVPKNFMELLTNQEAQVWVSGWRLNADSVLWGGHKVFMVKPEEPFQPVKEATQL [Q198V],0.0486,–,–,0.0519,0.0595,0.0618,0.0679,0.0512,–,0.0545,–,0.0631,–,0.0713,0.0675,–,0.0605
MGESLFKGPRDYNPISSSICHLTNESDGHTTSLYGIGFGPFIITNKHLFRRNNGTLVVQSLHGVFKVKDTTTLQQHLVDGRDMIIIRMPKDFPPFPQKLKFREPQREERICLVTTNFQTKSMSSMVSDTSCTFPSGDGIFWKHWIQTKDGQCGSPLVSTRDGFIVGIHSASNFTNTNNYFTSVPKNFMDLLTNQEAQQWVSGWRLNADSVLWGGHKVFMVKPEEPFQPVKEATQL [E189D],–,0.0587,0.0945,0.0667,–,–,0.085,–,–,0.0478,–,–,0.0701,0.0646,0.0468,0.0782,–
MGESLFKGPRDYNPISSSICHLTNESDGHTTSLYGIGFGPFIITNKHLFRRINGTLVVQSLHGVFKVKDTTTLQQHLVDGRDMIIIRMPKDFPPFPQKLKFREPQREERICLVTTNFQTKSMSSMVSDTSCTFPSGDGIFWKHWIQTKDGQCGSPLVSTRDGFIVGIHSASNFTNTNNYFTSVPKNFMELLTNQEAQQWVSGWRLNADSVLWGGHKVFMVKPEEPFQPVKEATQL [N52I],–,0.0818,0.0616,–,–,0.0603,0.0577,–,–,–,–,–,–,0.0601,–,0.0879,–
